Laboratory results: publication PMC12040169 (PLOS Biology, 2025)
Where two headings read alike, the source gives them in different places. This is one part of the list.

Tested on: T1, C. trachomatis L2/434/Bu expressing GFP (CTL2-GFP)
T1 construct: L2/434/Bu GFP intracellular growth in HeLa cells
Set-up: species or system HeLa; C. trachomatis total inclusion area by high-content imaging, normalised to DMSO
Outline: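 Post-fluorescence-read fixation, DNA staining with Hoechst and high-content imaging; GFP inclusion area and number per well, and nuclei counts, used as proxies for bacterial growth and host viability.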

[1] = total inclusion area; 28.5 h, 10 µM; inhibitor

SMILES	% of control remaining [1]	% of control remaining (total inclusion area, 28.5 h, 10 µM, inhibitor)
O=C(Nc1cccc(O)c1)c1ccc(Br)c(S(=O)(=O)N2CCCCC2)c1 [CBK261736]	92.5797	
O=C(NC(=S)Nc1ccc2c(c1)Cc1ccccc1-2)c1cc([N+](=O)[O-])ccc1N1CCOCC1 [CBK268726]	108.098	
COc1ccc([C@@]23CC[C@@H](N)C[C@@H]2N(C(C)(C)C)CC3)cc1OC [CBK067673]	92.4129	
COc1ccc2c(c1OC)C(=O)N(c1cccc([N+](=O)[O-])c1)C2 [CBK115318]	86.4591	
CCOc1cc(OCC)cc(C(=O)N2CCC3(CC2)CC(=O)c2c(OC)cccc2O3)c1 [CBK168012]	118.573	
COCCNC(=O)CN(C)c1nc2ccccc2[nH]1 [CBK306378]	84.567	
CC(=O)Nc1ccc(-c2cncc(N(C)CCN(C)C)n2)cc1 [CBK065694]	162.199	
O=C(Cn1nc(C(F)(F)F)c2c1CCC2)N1CCN(Cc2ccccc2)CC1 [CBK266113]	78.8652	
CC(=O)NCC1CCCN(Cc2c[nH]nc2-c2c(F)cccc2F)C1 (centres unmarked) [CBK306382]	28.8276	
O=CNC(Cc1ccc(O)c([N+](=O)[O-])c1)C(=O)O (centres unmarked) [CBK262421]	105.742	
Cc1cccc(-c2n[nH]c(=S)n2CC(=O)NCc2cn(-c3ccccc3)nc2-c2ccccc2)c1 [CBK297941]	86.7036	
Cc1occc1-c1nnc(NCc2cnn(C)c2C)o1 [CBK304819]	82.494	
Nc1ncc(-c2ccc3c(c2)OCO3)nc1NCc1ccncc1 [CBK063483]	111.527	
CS(=O)(=O)c1ccc(-c2cnc(N)c(NCc3ccncc3)n2)cc1 [CBK063647]	82.8138	
O=C(CSc1nc2ccccc2c(=O)[nH]1)Nc1ccccc1O [CBK269738]	119.258	
O=c1nc(O)c2ccccc2s1 [CBK027968]	98.5479	
C[C@H](c1ccccc1)n1c(=O)[nH]c2ncc(-c3cccc4ncccc34)nc21 [CBK064173]	94.5138	
O=C(NCC1COc2ccccc2O1)c1ccc(-c2ccccc2)nc1NCCc1ccccn1 (centres unmarked) [CBK076554]	88.363	
O=C(NCCNc1cnccn1)c1cc(Br)ccc1F [CBK253480]	54.4623	
Cc1ncc(CN(CCN(C)C)Cc2cccs2)n1C [CBK282993]	97.4818	
CC(C)c1ccc(-n2ncc3c(=O)[nH]cnc32)cc1 [CBK288096]	55.0696	
NC1(C(F)(F)F)Oc2cc(Cl)c(Cl)cc2O1 [CBK021805]	51.362	
CC(Oc1cccc(Br)c1)c1nc(-c2ccc(-n3cccc3)cc2)no1 (centres unmarked) [CBK293986]	81.8323	
CN(C)CCCNC(=S)Nc1ccc(Cl)cc1Cl [CBK264183]	108.431	
O=C(O)c1ccc(CNCc2c(F)cccc2Cl)cc1 [CBK269496C]		46.9137
Fc1ccc(CCN2CCC(Oc3cncc(OCc4cccnc4)n3)C2)cc1 (centres unmarked) [CBK084469]	71.0494	
COc1ccc(NC(=O)CSc2nnc(C3CC3)n2C)c(OC)c1 [CBK270303]	105.214	

SMILES	% of control remaining [1]	% of control remaining (total inclusion area, 28.5 h, 10 µM, inhibitor)
COCC(=O)NC1CCN(CC2(c3ccccc3F)CCCC2)CC1 [CBK284850]	94.4899	
Cc1c(CN2CCCC2(C)C(=O)NC2CCCC2)cnn1C (centres unmarked) [CBK281960]	86.0911	
CCCc1ccc(S(=O)(=O)N(c2ccccc2)C2CCNCC2)cc1 [CBK165121T]	76.6215	
COc1ccc(CN2CCC(Oc3nccnc3OCCN3CCOCC3)CC2)cc1 [CBK082922T]	72.0859	
O=c1n(CC2CCCCC2)c2ccccc2n1S(=O)(=O)c1ccc2ccccc2c1 [CBK106527]	93.9649	
O=C(NCc1ccco1)C1CCN(c2nccc(C(F)(F)F)n2)CC1 [CBK028778]	12.0264	
Cc1oc(-c2ccccc2)cc1C(=O)Nc1c(F)cc(F)cc1OC1CCNCC1 [CBK050326T]	69.9391	
Ic1ccc2c3ccc(I)cc3c3[nH]c(-c4ccccc4)nc3c2c1 [CBK261218]	122.229	
Cc1ccc(S(=O)(=O)N(CC(=O)Nc2ccccc2F)c2cc(Cl)ccc2Cl)cc1 [CBK268647]	83.9345	
COc1cccc(NC(=O)c2cnc(-c3ccccc3)c(-c3cccnc3)c2)c1OC [CBK037487]	106.668	
CCN1CCCC(CNS(=O)(=O)c2cc(-n3cccn3)ccc2OC)C1 (centres unmarked) [CBK306997]	15.7454	
CCOC(=O)CC(=O)COc1nc2cc3c(nc2o1)CCCC3 [CBK269204]	101.878	
Cc1ccc(Cl)cc1N1CCN(C(=O)C2C3C=CC(C3)C2C(=O)O)CC1 (centres unmarked) [CBK287025]	136.126	
Cc1nn(C)c(C)c1S(=O)(=O)n1ccn(-c2cccc(C(F)(F)F)c2)c1=O [CBK106593]	102.703	
Cc1csc(C(Cc2ccsc2)NC(=O)c2c(C)noc2C)n1 (centres unmarked) [CBK285045]	104.696	
CCc1nc2ccc(C(=O)Nc3ccc(NC(C)=O)cc3)cn2c1N(C)CC [CBK145483]	76.2706	
COc1ccccc1CN1CCC2(CCCNC2=O)CC1 [CBK284823]	111.003	
Cc1cccn2c(=O)cc(CN3CCn4c(nnc4C4CC4)C3)nc12 [CBK305232]	30.8011	
CC1=NN(c2ccccc2)C(=O)/C1=C/Nc1ccc(S(=O)(=O)Nc2nc(C)cc(C)n2)cc1 [CBK262368]	19.9148	
Cc1ccccc1OC(C)C(=O)Nc1ccc(S(=O)(=O)N2CCCC2)cc1 (centres unmarked) [CBK269367]	110.816	
Cc1ccc(CN2CC(C(=O)N3CCC(C(=O)O)CC3)CC2=O)cc1 (centres unmarked) [CBK300205]	114.706	
CCCc1nc2oc3c(-c4ccccc4)c(C(=O)O)c(C)nc3c2c2c1COC(C)(C)C2 [CBK264044]	78.5834	
Cc1nn(Cc2cccc(C(N)=O)c2)c(C)c1Br [CBK022255]	96.5732	
Cc1ccc2nc3c(cc2c1)CNCC(C)O3 (centres unmarked) [CBK281941]	121.462	
O=C(O)c1cccc(Sc2nccc(C(F)(F)F)n2)c1 [CBK115957]	101.669	
C#CCOc1cn([C@H]2C[C@@H](O)[C@@H](CO)O2)c(=O)[nH]c1=O [CBK201278]	110.161	
COC(=O)CN1N=C(C(C)(C)C)Cn2c(cc3ccccc32)C1=O [CBK284204]	60.7774	

SMILES	% of control remaining [1]	% of control remaining (total inclusion area, 28.5 h, 10 µM, inhibitor)
O=C(CN1CCC(c2ccccc2F)CC1)NC1CCCC1 [CBK283551]	85.3606	
CCC1(C)CC(=O)c2cc(NC(=O)N3CCc4n[nH]cc4C3)ccc2O1 (centres unmarked) [CBK306846]	57.4219	
COc1ccc2c(c1)c(=O)oc1cc(OCC(=O)N3CCc4ccccc4C3)ccc12 [CBK266346]	149.72	
Cc1nnc(SCC(=O)N/N=C/c2ccncc2)n1-c1ccccc1 [CBK262762]	101.05	
O=C(O)CCCC(=O)NCCc1ccc(Cl)cc1Cl [CBK296930]	80.7979	
COc1ccc(CN2CCN(Cc3ccco3)CC2)cc1OCc1ccccc1 [CBK264225]	99.5583	
Nc1cc2ccccc2nc1C1CCN(C(=O)C2CC=CCC2)CC1 (centres unmarked) [CBK285016]	102.376	
O=C(O)CCSc1nc2ccccc2n1CCOc1ccccc1 [CBK262555]	94.5617	
CCc1ccc(S(=O)(=O)N2CCN(C(c3ccccc3)c3ccccc3)CC2)cc1 [CBK093948]	99.8989	
O=C(CCn1c(=O)oc2ccccc21)Nc1ccc2c(c1)CN(Cc1ccccc1)C2 [CBK285946]	119.459	
CN(C)c1ccc(Nc2cc(Cl)nc3ccnn23)cc1 [CBK037203]	121.321	
COc1cccc(OC)c1OCCCN1CCCCC1 [CBK262719]	107.132	
COc1ccc(OCCCN2C(=O)C3(CC(=O)N(Cc4ccccc4)C3=O)c3cc(OC)ccc32)cc1 (centres unmarked) [CBK075523]	102.903	
Oc1cccc2c1OCO2 [CBK000070]	15.7183	
CN(CC(N)=O)C(=O)CCn1c(=O)oc2cc(Cl)ccc21 [CBK305757]	23.1212	
CC(C)(C)OC(=O)N1CCC(N(CCCO)Cc2ccccn2)CC1 [CBK304246]	72.4339	
CC(C)NC(=O)N1CC[C@H](c2nc3ncccc3[nH]2)C1 [CBK289369]	85.6097	
CCOc1cc(/C=N/NC(=O)CSc2nc(C)cc(C)n2)ccc1O [CBK262405]	95.4427	
CCNC(=O)C1(NC(=O)c2cn3ccccc3n2)CCCCC1 [CBK305240]	46.0409	
CN1C(=O)c2ccccc2C(=O)[C@@]2(C)CN(Cc3ccccc3)C[C@@H]12 [CBK284692]	99.2735	
COCCN1CCC2(C/C=C/C[C@H]3COCC[C@H]3NC(=O)CNC2=O)CC1 [CBK292145]	103.645	
Cc1ccc(C(=O)N2CCC[C@@H]3NC(=O)c4ccccc4OCC/C=C/C[C@@H]32)c(O)n1 [CBK292080]	71.9528	
CS(=O)(=O)N(CC(=O)NCc1ccccn1)c1ccc(C23CC4CC(CC(C4)C2)C3)cc1 [CBK268448]	100.357	
CCCn1cnnc1C(C)NS(=O)(=O)c1cccc(C(=O)N2CCC2)c1 (centres unmarked) [CBK306569]	26.0025	
Cc1ccc(OCCSc2nnc(N)[nH]2)cc1 [CBK269334]	105.253	
Cc1ccc(OCCOCCN(C)C)c(Cl)c1 [CBK265493G]	97.7605	
